Reference: the supplement of paper PMC3334620
Over roughly 33,000 sequences, “E-score (-0.5 to 0.5)” has its median near -0.035; the highest 2% begin near 0.34. Some of the results follow.

Target: T1, Mot3 (UniProt P54785)
T1 sequence: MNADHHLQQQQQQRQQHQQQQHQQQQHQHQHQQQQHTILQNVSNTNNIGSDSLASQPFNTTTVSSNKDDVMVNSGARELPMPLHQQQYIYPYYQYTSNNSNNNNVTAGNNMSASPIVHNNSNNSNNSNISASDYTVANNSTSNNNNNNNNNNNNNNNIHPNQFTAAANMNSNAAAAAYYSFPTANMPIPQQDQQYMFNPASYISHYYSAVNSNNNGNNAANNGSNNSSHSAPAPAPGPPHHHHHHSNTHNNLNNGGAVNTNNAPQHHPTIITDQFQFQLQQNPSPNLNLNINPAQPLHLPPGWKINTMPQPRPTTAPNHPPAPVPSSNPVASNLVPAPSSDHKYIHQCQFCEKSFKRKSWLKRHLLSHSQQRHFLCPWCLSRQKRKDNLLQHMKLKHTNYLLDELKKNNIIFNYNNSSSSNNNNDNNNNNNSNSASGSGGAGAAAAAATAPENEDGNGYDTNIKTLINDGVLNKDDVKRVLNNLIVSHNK
Experiment: PBM E-score (8-mer binding enrichment) (E-score (-0.5 to 0.5)); higher = stronger / more preferred TF binding; most listed sequences are background and not binding sites
Conditions: protein concentration: 200 nM; construct: GST-full length
Experimental: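 Universal 'all 10-mer' protein binding microarrays (Agilent AMADID 015681) probed with GST-tagged S. cerevisiae TFs (full-length or DBD) made by in vitro transcription/translation (PURExpress), about 100-200 nM. Bound TF was detected with fluorescent anti-GST. Each ungapped 8-mer (which stands for itself and its reverse complement) is scored by the PBM enrichment score (E-score), a modified Wilcoxon-Mann-Whitney statistic from -0.5 to +0.5, computed with the Universal PBM Analysis Suite. Scale: above 0.35 generally sequence-specific binding.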

Row | Sequence | PBM E-score
1 | AAGTTGCG | 0.041
2 | CGGGGTTA | -0.126
3 | GGTTGCGA | -0.184
4 | AGATTGGC | -0.163
5 | AAGGCCGC | -0.157
6 | CCCGCTCC | -0.381
7 | TATCGAGA | -0.0588
8 | AGAGCAGG | 0.018
9 | GGTAGCCA | 0.0673
10 | ACAAGACT | 0.0101
11 | CCCAGGGG | -0.322
12 | AAGCCTCC | -0.243
13 | GTGACAAC | -0.104
14 | CTTTCATA | 0.0855
15 | CAGGATAC | -0.0272
16 | TAGGGAAA | -0.0198
17 | CTGTGTAA | 0.41
18 | AATCATAT | 0.0169
19 | ACGGTTCG | -0.151
20 | GAAAGACC | -0.15
21 | CGACTCTC | -0.347
22 | CCGGCGCC | -0.232
23 | AAAATAGG | 0.267
24 | GAGATGAA | -0.0504
25 | GCTAGAGA | -0.211

Row | Sequence | PBM E-score
26 | ATAGAGTG | -0.152
27 | CTATATCA | -0.111
28 | AAATTCGG | -0.12
29 | GGTGGACA | -0.0311
30 | CTTGATTA | 0.0272
31 | AGATGAAC | 0.208
32 | ATGACCAG | 0.199
33 | AAAATGTA | 0.286
34 | ACGTTCGA | 0.0305
35 | CCGAAAAA | 0.121
36 | CCATACAA | 0.0803
37 | GTTCAGGA | -0.0132
38 | AAAAATCA | 0.0696
39 | GGGTGCGA | -0.237
40 | TGTTCAAA | 0.199
41 | AGGTGTCA | 0.0915
42 | CTTAGGAA | 0.29
43 | GAGACGAC | -0.217
44 | CAAATTAC | 0.274
45 | GTCTGGCA | -0.295
46 | AACTTAGG | 0.172
47 | ACGATAGG | 0.117
48 | AGAGTAAC | -0.0792
49 | GACGTTAA | 0.206
50 | TCAACTAA | 0.144

Row | Sequence | PBM E-score
51 | ACCGTAGT | -0.133
52 | TGTGTAAA | 0.416
53 | ATCATAGG | 0.00869
54 | ATGAATTC | 0.116
55 | AAACCCAA | 0.134
56 | CAATCACA | 0.147
57 | AACAATCA | 0.142
58 | GCGTTAGC | 0.125
59 | ACCCGAAG | -0.0962
60 | CACTTTCC | 0.0399
61 | CTGGGGTA | -0.113
62 | GCCCACCC | -0.103
63 | GTTACTAA | 0.183
64 | CTGTTCGC | 0.117
65 | AATCGCCT | 0.0788
66 | ATGGCCAT | -0.171
67 | ATACCGTA | 0.054
68 | CTTAGATA | -0.0179
69 | GGGTCTAA | -0.0974
70 | GTCGGGTA | 0.142
71 | ACCCGCGC | 0.0648
72 | CGACCTAC | -0.114
73 | GATGGGGC | -0.129
74 | CCAAACTC | -0.0876
75 | AACGCTCG | -0.0681

Row | Sequence | PBM E-score
76 | AAAATCGC | -0.111
77 | CGGGGAAC | -0.0973
78 | CCGTACAG | -0.0174
79 | GGCCTACA | 0.00717
80 | ATTTACTA | 0.113
81 | GTATATGA | 0.129
82 | ACGGCAGG | -0.17
83 | GTTGGAGA | 0.0902
84 | CTCTCCCA | -0.0541
85 | GGGTTCAA | -0.039
86 | ATTTTTCG | 0.115
87 | CCGGATAA | -0.131
88 | GTTGTGAA | 0.133
89 | TCCTCTCA | -0.133
90 | GATGGAAA | -0.0458
91 | ACCAAGTA | 0.101
92 | ACGGGAAT | -0.0815
93 | CTATTGTC | -0.253
94 | ATAGACCG | 0.0362
95 | CTGTTGCC | 0.317
96 | GACTTTTA | 0.0474
97 | AAGTGATT | 0.048
98 | ATTCCTCC | -0.0184
99 | CTAACGAA | -0.101
100 | GGGTGAAC | -0.0631

Row | Sequence | PBM E-score
101 | CTGTTCGA | -0.0328
102 | GGTTAATA | 0.133
103 | CAGCTGGG | -0.0915
104 | CTGCCGTC | -0.305
105 | GAAATCCA | -0.0415
106 | CTTCGCTC | -0.244
107 | AGGGACTG | -0.226
108 | ATACGCGG | 0.177
109 | ATAGCCCG | -0.107
110 | ACGATTAG | -0.0892
111 | GTGTTTAA | 0.22
112 | GCAAAAGA | -0.0853
113 | ATCAGATC | -0.196
114 | CAATTGTA | -0.0432
115 | GATGGTAC | -0.0492
116 | ACAACCCC | -0.0279
117 | ATCAAACC | -0.0351
118 | GCATAGCC | -0.127
119 | AGACTACC | -0.12
120 | AGCACACT | -0.0522
121 | AAGCGGTC | -0.228
122 | ATCCAGTC | -0.156
123 | GCGGTACA | -0.0033
124 | ACGTTCAG | -0.084
125 | AACGAGTA | 0.162

Row | Sequence | PBM E-score
126 | CGTGGATA | 0.112
127 | GGGTTACC | -0.0332
128 | GTTGGCTA | -0.14
129 | ACGCGCCC | 0.0896
130 | AACAGATC | 0.00801
131 | CCATTATC | -0.00018
132 | CCAGTCCG | -0.131
133 | ATAGCCTA | 0.158
134 | AGGCTTAT | -0.0461
135 | ATAACGGA | 0.0368
136 | GTCTTAGA | -0.0124
137 | CGTGCAAC | 0.0126
138 | AATACAGG | 0.287
139 | GCTGCTAA | -0.0248
140 | ACATGAAT | 0.294
141 | CGCTCTCC | -0.295
142 | AACTGCTC | -0.0963
143 | CCTGGGGC | -0.292
144 | ACGATGGG | -0.272
145 | CTATAACA | 0.153
146 | AGATTCCC | -0.236
147 | CCCCTCCA | -0.268
148 | GCCCTCAC | -0.246
149 | CTCCGCAC | -0.159
150 | TAATCAGA | -0.0687

Row | Sequence | PBM E-score
151 | CATTTCAC | 0.0148
152 | CATCTGCC | -0.0475
153 | AATCAAAC | 0.065
154 | CCCCCCGG | -0.415
155 | GGTTCATA | 0.0937
156 | ATAACACG | 0.391
157 | ATTTCCCA | -0.0389
158 | AGGCATCC | 0.384
159 | GGAAGTTA | 0.0395
160 | CTGTGAAG | -0.0313
161 | CCTGTTAC | 0.283
162 | CGAACAGC | -0.0835
163 | CCCTGTGA | 0.0763
164 | CGATCTAC | -0.0314
165 | GTTGCTAA | 0.108
166 | AAGGCTAT | -0.0295
167 | AGGCAGAA | 0.00917
168 | CATGTGGC | -0.00289
169 | CCCGAAAG | -0.0361
170 | AGATCACA | -0.0374
171 | ATTGCAAG | -0.00384
172 | GGCGCGCC | 0.0566
